Reference: PubChem BioAssay AID540317 (National Center for Advancing Translational Sciences (NCATS), 2011)
Hit rate of the full screen: of about 390,000 compounds, about 2,200 (0.56%) were called active. This list was built around the results that the source calls inconclusive (neither active nor inactive); the mix of calls is not that of the screen. Calls come from the whole dose curve; as a rule, active = well fitted inhibition curve with a large enough effect; inconclusive = small, poorly fitted or top-dose-only effect; inactive = no such curve, though single readings can be large or run the other way. Potencies beside an inconclusive call are fits to weak or partial responses and may not hold up.

molecular target: Chromobox protein homolog 1 (Homo sapiens) (UniProt P83916); assay: HTS for Inhibitors of HP1-beta Chromodomain Interactions with Methylated Histone Tails; settings: AlphaScreen HP1-beta / biotin-H3K9me3 peptide binding; series mostly up to 114 µM; note: nearly all actives have a fitted effect of over 70% in size
Chain of UniProt P83916 (P83916 whole entry, looked up): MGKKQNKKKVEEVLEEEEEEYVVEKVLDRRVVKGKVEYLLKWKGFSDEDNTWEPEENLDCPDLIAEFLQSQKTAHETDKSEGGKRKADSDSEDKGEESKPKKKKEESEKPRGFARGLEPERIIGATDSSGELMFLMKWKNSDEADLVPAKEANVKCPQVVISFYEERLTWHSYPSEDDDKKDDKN
Procedure, shortened: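 Compound inhibition of the preformed complex between 50 nM HP1-beta and 50 nM biotinylated H3K9me3 peptide was read by AlphaScreen. Buffer was PBS pH 7.4 with 0.01% Tween-20. Incubations ran 30 min at room temperature, with 10 ug/mL donor/acceptor beads.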
Potency is the fitted concentration of half-maximal effect; tags give direction and shape of the fitted curve.

| SMILES | Potency |
| --- | --- |
| CCN(CC)CCCNC(=O)c1cc(-c2ccccc2)c(N2CCCCC2)s1 | inconclusive: 50.1 µM [inhibitor, single point] |
| CC[C@]12c3[nH]c4ccc(Cl)cc4c3CCN1C(=O)[C@@H](CC(=O)NCc1cccc(C(F)(F)F)c1)C[C@@H]2C(=O)N1CCN(C(=O)c2ccco2)CC1 | inactive |
| C=CC(=O)Nc1ccc(N(C)c2ccnc(Nc3ccc(N4CCN(C)CC4)cc3)n2)cc1 | inconclusive: 35.5 µM [inhibitor, partial curve] |
| COC(=O)CN(C)C(=O)c1ccccc1OC1CCN(S(C)(=O)=O)CC1 | inactive |
| CC(=O)NC(=S)Nc1sc2c(c1C(N)=O)CCC(C)C2 (stereo not drawn) | inconclusive: 14.1 µM [inhibitor, full curve] |
| Cc1cccc(N=Cc2cc(Br)cc(Cl)c2O)c1 | inactive |
| COc1ccc(CCN(C)C(=O)C2CCCN(Cc3ccc(OC)c(OC)c3)C2)cc1OC (stereo not drawn) | inconclusive: 79.4 µM [inhibitor, single point] |
| Cc1ccsc1C=Nc1ccc(O)cc1 | inconclusive: 63.1 µM [inhibitor, single point] |
| CCN1C(=O)N[C@@H](CCc2ccccc2)C(C(C)=O)=C1C | inactive |
| CCOC(=O)c1sc(NC(=O)/C=C/c2ccc(F)cc2)nc1C | inconclusive: 44.7 µM [inhibitor, partial curve, poor fit] |
| CCc1ccc(OCCOCC(O)CNC(C)(C)C)cc1 (stereo not drawn) | inconclusive: 39.8 µM [inhibitor, single point] |
| COc1ccccc1NC(=O)c1c(NCc2ccc(C)o2)sc2c1CCCCC2 | inconclusive: 50.1 µM [inhibitor, partial curve, poor fit] |
| COc1cc(/C=N/NC(=O)C(Cc2c[nH]c3ccccc23)NC(=O)OCc2ccccc2)cc([N+](=O)[O-])c1O (stereo not drawn) | inconclusive: 56.2 µM [inhibitor, partial curve, poor fit] |
| Cc1ccc(/C=C/c2onc(C)c2S(=O)(=O)N2CCC(C(=O)Nc3ccccc3C(F)(F)F)CC2)cc1 | inactive |
| C(=N\Nc1nc2ccccc2s1)/c1cccs1 | inactive |
| COC(=O)C(C)N1C(=O)S/C(=C\c2ccc(-c3ccc(C(=O)O)cc3C)o2)C1=O (stereo not drawn) | inconclusive: 50.1 µM [inhibitor, partial curve] |
| OCC1CCCCN1CC(O)COC(c1ccc(F)cc1)c1ccc(F)cc1 (stereo not drawn) | inconclusive: 17.8 µM [inhibitor, full curve] |
| COc1ccc(CCN(C)C(=O)Cc2ccc(-c3ccccc3)cc2)cc1OC | inactive |
| CCOC(=O)c1c(C)[nH]c(C)c1S(=O)(=O)N1CCCC(C(=O)NCc2ccc(N(C)C)cc2)C1 (stereo not drawn) | inconclusive: 79.4 µM [inhibitor, single point] |
| O=C(CCNS(=O)(=O)c1ccccc1)OCC(=O)c1ccc(Br)cc1 | inactive |
| Cc1cccc(NC2=C/C(=N/S(=O)(=O)c3cccs3)c3ccccc3C2=O)c1 | inconclusive: 4.47 µM [inhibitor, full curve, poor fit] |
| NC(=O)CC(NC(=O)Cc1ccc(Cl)cc1)c1ccc(NCCN2CCOCC2)c([N+](=O)[O-])c1 (stereo not drawn) | inactive |
| COc1cc(O)c(C(CCN2CCCC(C)C2)c2ccc3c(c2)OCO3)c(OC)c1 (stereo not drawn) | inactive |

| SMILES | Potency |
| --- | --- |
| Cc1ccc(CN(Cc2ccco2)C(=O)c2oc3cc(Br)ccc3c2C)cc1 | inactive |
| O=C(C1CC(=O)N(c2ccccc2)C1)N1CCN(c2ccccc2F)CC1 (stereo not drawn) | inactive |
| CC(C)(CN1CCc2ccccc2C1)NS(=O)(=O)c1ccccc1 | inconclusive: 56.2 µM [inhibitor, partial curve, poor fit] |
| O=C(COC(=O)c1ccccc1NC(=O)c1ccco1)Nc1ccc2c(c1)OCO2 | inconclusive: 31.6 µM [inhibitor, single point] |
| Cc1ccc(S(=O)(=O)n2nc(C)c(C#N)c2N)cc1 | inconclusive: 39.8 µM [inhibitor, single point] |
| COc1cc(CN2CCN(S(=O)(=O)c3ccc(NC(C)=O)cc3)CC2)cc(OC)c1OC | inconclusive: 25.1 µM [inhibitor, full curve] |
| CC1CCN(C(=O)CCN2C(=O)/C(=C/c3cccs3)SC2=S)CC1 | inconclusive: 12.6 µM [inhibitor, full curve] |
| Cc1csc(=O)n1CCC(=O)OCC(=O)NCc1ccc(F)cc1 | inactive |
| COc1ccccc1CNc1nc(-c2cc(C)n(C)c2C)cs1 | inactive |
| Cc1ccc([N+](=O)[O-])c(OCCCNCC(C)O)c1 (stereo not drawn) | inconclusive: 70.8 µM [inhibitor, single point] |
| COc1ccc(S(=O)(=O)N2CCN(Cc3ccc(Cl)cc3)CC2)cc1 | inconclusive: 50.1 µM [inhibitor, partial curve] |
| Cc1c(C(=O)N2CCN(c3ccccc3)CC2)oc2c(F)cccc12 | inactive |
| CCN(CC)c1ccc(NC(=O)Nc2ccccc2)cc1 | inconclusive: 56.2 µM [inhibitor, single point] |
| O=C(Nc1ccccc1)c1ccc(C(=O)Nc2ccccc2)nc1 | inconclusive: 44.7 µM [inhibitor, partial curve] |
| Cc1ccccc1C(=O)NC(=S)Nc1sc2c(c1C#N)CCC(C)C2 (stereo not drawn) | inactive |
| COC(=O)c1ccccc1S(=O)(=O)N(CCCN1CCOCC1)Cc1cccs1 | inconclusive: 22.4 µM [inhibitor, full curve] |
| O=C1C(=O)N(c2ccccc2)C(c2ccccc2[N+](=O)[O-])/C1=C(\O)c1ccccc1 (stereo not drawn) | inconclusive: 89.1 µM [inhibitor, single point] |
| O=C(NCCC1=CCCCC1)c1cc(-c2ccncc2)nc2ccccc12 | inactive |
| COC(=O)c1ccccc1OCCOCCOc1cccc2cccnc12 | inconclusive: 39.8 µM [inhibitor, single point] |
| COc1cc([N+](=O)[O-])ccc1NC(=O)CC1SC(=Nc2ccc(F)cc2)N(CCC2=CCCCC2)C1=O (stereo not drawn) | inconclusive: 31.6 µM [inhibitor, single point] |
| Cc1cc(C)c(OCCCNCc2ccccc2)c(Br)c1 | inconclusive: 17.8 µM [inhibitor, full curve, poor fit] |
| CCN1CCN(C(=O)c2ccc(C(F)(F)F)cc2)CC1 | inactive |
| Oc1ccc2ccccc2c1N=Nc1ccccn1 | active: 8.91 µM |

| SMILES | Potency |
| --- | --- |
| CCOc1ccc(NC(=S)N(CCN2CCOCC2)Cc2ccc3c(c2)CCCN3CC)cc1 | inconclusive: 15.8 µM [inhibitor, full curve, poor fit] |
| COc1ccccc1CN1CCN(S(=O)(=O)c2ccc(C)cc2)CC1 | inconclusive: 56.2 µM [inhibitor, single point] |
| COc1nsnc1NS(=O)(=O)c1ccc(NC(=S)NC(=O)c2cccnc2)cc1 | inconclusive: 50.1 µM [inhibitor, partial curve] |
| CCOc1ccc(NC(=O)CN(C)C(=O)CC2OC(=O)c3ccccc32)cc1OCC (stereo not drawn) | inactive |
| CC1CCN(c2nc(CN3CCCCC3)nc3scc(-c4ccccc4)c23)CC1 | inconclusive: 50.1 µM [inhibitor, partial curve] |
| CC1CCCC(N2CCN(C(=O)c3cccc(F)c3)CC2)C1 (stereo not drawn) | inconclusive: 22.4 µM [inhibitor, full curve] |
| Cc1ccc(NC(=O)CN2C(=O)N/C(=C/c3cc(C)n(-c4cccc(C(=O)O)c4)c3C)C2=O)cc1 | inconclusive: 56.2 µM [inhibitor, partial curve, poor fit] |
| COc1ccc(CCNC(=S)NC(=O)c2cccc(Cl)c2)cc1OC | inconclusive: 50.1 µM [inhibitor, partial curve, poor fit] |
| Cc1ccc(C2CC(=O)NC(SCCC(C)C)=C2C#N)cc1 (stereo not drawn) | inconclusive: 8.91 µM [inhibitor, partial curve, poor fit] |
| COc1cccc(NC(=S)NCc2ccc(F)cc2)c1 | inactive |
| O=[N+]([O-])c1ccc(N2CCN(Cc3ccc([N+](=O)[O-])o3)CC2)cc1 | inconclusive: 20 µM [inhibitor, full curve] |
| CCN(c1ccccc1)S(=O)(=O)c1nnc(NC(=O)COc2cccc(C)c2)s1 | inactive |
| CN(C)c1ccc(/C=C/c2c([N+](=O)[O-])c(=O)n(C)c(=O)n2C)cc1 | inactive |
| COc1ccc(CNC(=O)c2oc3c(c2C)-c2nn(Cc4ccc(Cl)cc4)cc2CC3)cc1 | inactive |
| CCOC(=O)c1c(N2C(=O)C3C4C=CC(O4)C3C2=O)sc2c1CCCC2 (stereo not drawn) | inconclusive: 56.2 µM [inhibitor, single point] |
| Nc1cccc2cccc([N+](=O)[O-])c12 | inconclusive: 28.2 µM [inhibitor, partial curve, poor fit] |
| COc1ccc(-n2cnc3cc(NCc4ccco4)ccc32)cc1 | inconclusive: 70.8 µM [inhibitor, partial curve] |
| COc1ccc(NC(=O)CNC(c2ccccc2)c2ccccc2)cc1 | inconclusive: 15.8 µM [inhibitor, partial curve, poor fit] |
| COc1ccc(N2CCN(Cc3nnc(-c4cccc(Br)c4)o3)CC2)cc1 | inconclusive: 31.6 µM [inhibitor, partial curve] |
| CN(C(=O)COC(=O)C12CC3CC(CC(C3)C1)C2)c1c(N)n(Cc2ccccc2)c(=O)[nH]c1=O | inactive |
| COC(=O)c1cc(C(=O)Nc2nnc(CC(C)(C)C)s2)cc([N+](=O)[O-])c1 | inconclusive: 28.2 µM [inhibitor, partial curve, poor fit] |
| C=CCc1cc(Cl)ccc1OCCOCCNCCOC | inconclusive: 56.2 µM [inhibitor, single point] |
